Measured values from patent US11000038B2, “Pyridone compounds and agricultural and horticultural fungicides containing the same as active ingredients” (priority 2017, dated 2021).

Key:
[1] = tested on: wheat brown rust fungi (Puccinia recondita); test: Test Example E: wheat brown rust, spray treatment of wheat plants; type: in vivo; details: wheat brown rust, spray treatment
[2] = tested on: cabbage Alternaria sooty spot fungi (Alternaia brassicicola); test: Test Example C: cabbage Alternaria sooty spot, spray treatment of cabbage plants; type: in vivo; details: cabbage Alternaria sooty spot, spray treatment
From the text: [Test Example C] Cabbage Alternaria Sooty Spot
Test plants (cabbage variety: Shikidori) were cultivated until the cotyledons extended after the sowing of seeds.
<Control Value> Control value=100{1−(n/3)}

[3] = tested on: grape downy mildew fungus (Plasmopara viticola); test: Test Example G: grape downy mildew, spray treatment of grape plants; details: grape downy mildew, 250 ppm spray, 7 to 10 days after inoculation
[4] = tested on: barley powdery mildew fungi (Blumeria graminis f. sp. hordei); test: Test Example D: barley powdery mildew, spray treatment of barley plants; details: barley powdery mildew, spray treatment
[5] = tested on: gray mold fungi (Botrytis cinerea); test: Test Example B: tomato gray mold, spray treatment of tomato plants; details: tomato gray mold, spray treatment

Compound	Test E control value [1]	Test C control value [2]	Test G control value [3]	Test D control value [4]	Test B control value [5]
Cc1ccc(N(C)C)cc1-n1cc(Br)c(=O)c(Cl)c1-c1c(F)cc(F)cc1F [Compound 373]	L (L shows the control value of 50% or less)	H (H shows the control value of more than 50%)	L (L shows the control value of 50% or less)	L (L shows the control value of 50% or less)	L (L shows the control value of 50% or less)
CNc1ccc(C)c(-n2cc(Br)c(=O)c(Cl)c2-c2c(F)cc(F)cc2F)c1 [Compound 374]	L (L shows the control value of 50% or less)	H (H shows the control value of more than 50%)	L (L shows the control value of 50% or less)	L (L shows the control value of 50% or less)	H (H shows the control value of more than 50%)
CCc1c(-c2c(F)cc(F)cc2F)n(-c2ccccc2C)cc(Cl)c1=O [Compound 375]	H (H shows the control value of more than 50%)	H (H shows the control value of more than 50%)	L (L shows the control value of 50% or less)	H (H shows the control value of more than 50%)	H (H shows the control value of more than 50%)
Cc1ccccc1-n1cc(Br)c(=O)c(Cl)c1-c1ccccc1F [Compound 377]	L (L shows the control value of 50% or less)	H (H shows the control value of more than 50%)	L (L shows the control value of 50% or less)	L (L shows the control value of 50% or less)	H (H shows the control value of more than 50%)
Cc1ccccc1-n1cc(Br)c(=O)c(Cl)c1-c1ccccc1 [Compound 378]	L (L shows the control value of 50% or less)	L (L shows the control value of 50% or less)	L (L shows the control value of 50% or less)	L (L shows the control value of 50% or less)	L (L shows the control value of 50% or less)
Cc1cccc(Cl)c1-n1cc(Br)c(=O)c(Cl)c1-c1ccc(F)cc1 [Compound 379]	H (H shows the control value of more than 50%)	L (L shows the control value of 50% or less)	H (H shows the control value of more than 50%)	L (L shows the control value of 50% or less)	H (H shows the control value of more than 50%)
Cc1cccc(Cl)c1-n1cc(Br)c(=O)c(Br)c1-c1ccc(F)cc1 [Compound 380]	H (H shows the control value of more than 50%)	L (L shows the control value of 50% or less)	L (L shows the control value of 50% or less)	L (L shows the control value of 50% or less)	H (H shows the control value of more than 50%)
Cc1cccc(Cl)c1-n1cc(Cl)c(=O)c(Br)c1-c1ccc(F)cc1 [Compound 381]	H (H shows the control value of more than 50%)	L (L shows the control value of 50% or less)	L (L shows the control value of 50% or less)	L (L shows the control value of 50% or less)	L (L shows the control value of 50% or less)
Cc1cccc(Cl)c1-n1cc(Cl)c(=O)c(Cl)c1-c1ccc(F)cc1 [Compound 382]	H (H shows the control value of more than 50%)	L (L shows the control value of 50% or less)	L (L shows the control value of 50% or less)	L (L shows the control value of 50% or less)	H (H shows the control value of more than 50%)
COc1cc(-n2cc(Br)c(=O)c(Br)c2-c2c(F)cccc2F)c(C)cc1Br [Compound 384]	H (H shows the control value of more than 50%)	L (L shows the control value of 50% or less)	L (L shows the control value of 50% or less)	L (L shows the control value of 50% or less)	L (L shows the control value of 50% or less)
COc1ccc(C)c(-n2cc(Br)c(=O)c(Br)c2-c2c(F)cccc2F)c1 [Compound 385]	H (H shows the control value of more than 50%)	H (H shows the control value of more than 50%)	L (L shows the control value of 50% or less)	L (L shows the control value of 50% or less)	H (H shows the control value of more than 50%)
Cc1c(-c2ccccc2)n(-c2ccc(Br)cc2Cl)cc(Br)c1=O [Compound 386]	H (H shows the control value of more than 50%)	H (H shows the control value of more than 50%)	H (H shows the control value of more than 50%)	L (L shows the control value of 50% or less)	H (H shows the control value of more than 50%)
Cc1c(-c2ccccc2)n(-c2ccccc2Cl)cc(Br)c1=O [Compound 387]	H (H shows the control value of more than 50%)	H (H shows the control value of more than 50%)	H (H shows the control value of more than 50%)	L (L shows the control value of 50% or less)	H (H shows the control value of more than 50%)
O=c1c(Br)cn(-c2ccccc2Cl)c(-c2ccccc2)c1Cl [Compound 388]	H (H shows the control value of more than 50%)	L (L shows the control value of 50% or less)	L (L shows the control value of 50% or less)	L (L shows the control value of 50% or less)	H (H shows the control value of more than 50%)
Cc1ccc(C)c(-n2cc(C)c(=O)c(C)c2-c2c(F)cc(F)cc2F)c1 [Compound 390]	H (H shows the control value of more than 50%)	H (H shows the control value of more than 50%)	L (L shows the control value of 50% or less)	H (H shows the control value of more than 50%)	H (H shows the control value of more than 50%)
COc1cc(-n2cc(Br)c(=O)c(Cl)c2-c2c(F)cccc2F)c(C)cc1Br [Compound 391]	H (H shows the control value of more than 50%)	H (H shows the control value of more than 50%)	H (H shows the control value of more than 50%)	L (L shows the control value of 50% or less)	H (H shows the control value of more than 50%)
COc1ccc(C)c(-n2cc(Br)c(=O)c(Cl)c2-c2c(F)cccc2F)c1 [Compound 392]	H (H shows the control value of more than 50%)	H (H shows the control value of more than 50%)	L (L shows the control value of 50% or less)	L (L shows the control value of 50% or less)	H (H shows the control value of more than 50%)
CC(C)c1ccccc1-n1cc(Br)c(=O)c(Cl)c1-c1c(F)cc(F)cc1F [Compound 393]	H (H shows the control value of more than 50%)	H (H shows the control value of more than 50%)	H (H shows the control value of more than 50%)	H (H shows the control value of more than 50%)	H (H shows the control value of more than 50%)
CC(C)c1ccccc1-n1cc(Br)c(=O)c(Br)c1-c1c(F)cc(F)cc1F [Compound 394]	H (H shows the control value of more than 50%)	H (H shows the control value of more than 50%)	H (H shows the control value of more than 50%)	L (L shows the control value of 50% or less)	H (H shows the control value of more than 50%)
CC(C)c1ccccc1-n1cc(Cl)c(=O)c(Cl)c1-c1c(F)cc(F)cc1F [Compound 395]	H (H shows the control value of more than 50%)	H (H shows the control value of more than 50%)	H (H shows the control value of more than 50%)	H (H shows the control value of more than 50%)	H (H shows the control value of more than 50%)
CC(C)c1ccccc1-n1cc(Cl)c(=O)c(Br)c1-c1c(F)cc(F)cc1F [Compound 396]	H (H shows the control value of more than 50%)	H (H shows the control value of more than 50%)	L (L shows the control value of 50% or less)	L (L shows the control value of 50% or less)	H (H shows the control value of more than 50%)
Cc1cn(-c2ccccc2C(C)C)c(-c2c(F)cc(F)cc2F)c(C)c1=O [Compound 397]	L (L shows the control value of 50% or less)	H (H shows the control value of more than 50%)	L (L shows the control value of 50% or less)	L (L shows the control value of 50% or less)	L (L shows the control value of 50% or less)
